Experimental findings from PMC4336329 (PLoS ONE, 2015) are described below.

In all, about 310,000 compounds went through this assay and about 14,000 (4.5%) showed an effect of 50% or more. Effects have a minus sign here. Some of the results follow.
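Further: peak tail current of the secondary pulse compared with the same well before compound.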

The target in this test is human ether-à-go-go-related gene (hERG) potassium channel (human, UniProt Q12809). Briefly: primary screen, population patch clamp on CHO cells stably expressing hERG.
human ether-à-go-go-related gene (hERG) potassium channel, sequence (Q12809 whole entry, looked up): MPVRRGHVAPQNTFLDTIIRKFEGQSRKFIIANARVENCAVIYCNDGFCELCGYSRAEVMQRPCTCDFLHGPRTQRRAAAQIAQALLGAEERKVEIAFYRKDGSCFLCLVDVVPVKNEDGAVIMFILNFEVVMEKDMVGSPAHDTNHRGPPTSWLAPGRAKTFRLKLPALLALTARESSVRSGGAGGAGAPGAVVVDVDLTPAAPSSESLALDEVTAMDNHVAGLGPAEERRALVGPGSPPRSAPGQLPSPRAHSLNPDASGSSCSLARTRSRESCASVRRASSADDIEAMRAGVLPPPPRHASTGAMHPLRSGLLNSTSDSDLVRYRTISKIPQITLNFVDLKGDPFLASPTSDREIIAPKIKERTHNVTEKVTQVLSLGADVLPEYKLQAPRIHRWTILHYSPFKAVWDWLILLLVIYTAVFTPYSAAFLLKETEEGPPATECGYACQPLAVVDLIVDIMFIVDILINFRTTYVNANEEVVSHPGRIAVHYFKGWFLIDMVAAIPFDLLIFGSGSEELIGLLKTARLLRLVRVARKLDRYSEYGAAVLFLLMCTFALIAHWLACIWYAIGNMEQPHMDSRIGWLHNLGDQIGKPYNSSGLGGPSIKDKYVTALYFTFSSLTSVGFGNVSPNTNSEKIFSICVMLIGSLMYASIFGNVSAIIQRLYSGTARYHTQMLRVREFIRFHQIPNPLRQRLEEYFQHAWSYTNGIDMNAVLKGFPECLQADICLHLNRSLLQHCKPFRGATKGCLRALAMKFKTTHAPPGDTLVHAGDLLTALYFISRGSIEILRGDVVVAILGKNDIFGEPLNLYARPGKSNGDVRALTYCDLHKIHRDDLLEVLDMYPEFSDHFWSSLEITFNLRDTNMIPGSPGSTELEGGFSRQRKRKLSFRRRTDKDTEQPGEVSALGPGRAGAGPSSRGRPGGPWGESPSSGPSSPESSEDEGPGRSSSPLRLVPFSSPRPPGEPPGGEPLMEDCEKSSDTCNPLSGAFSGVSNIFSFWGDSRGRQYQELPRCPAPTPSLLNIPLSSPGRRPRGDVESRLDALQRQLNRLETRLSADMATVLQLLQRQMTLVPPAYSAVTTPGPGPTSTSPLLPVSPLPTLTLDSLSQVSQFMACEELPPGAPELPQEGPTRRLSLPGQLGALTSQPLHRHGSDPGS
`O=C(c1ccccc1SCc1ccc(F)cc1)N1CCOCC1`: the “hERG current change (%, negative = inhibition) at 10uM” value is recorded as 37.2%. Consider `COc1ccc(-c2cn3c(C)c(C(=O)NC(C)(C)C)sc3n2)cc1`, for which the “hERG current change (%, negative = inhibition) at 10uM” value was -7.22%. The result for `O=C(CCc1nnc(-c2ccccc2)o1)NCc1cc(F)ccc1F` reads 14.1%. For the compound `COc1ccc(Cl)cc1NC(=O)CN(C)C(=O)c1cn2ccccc2n1`, the “hERG current change (%, negative = inhibition) at 10uM” value is recorded as -13.6%. As for `COCCn1c(=NC(=O)CSCC(=O)N2CCOCC2)sc2ccccc21`, the figure is 4.59%; as for `N#Cc1ccc(CSc2nnc(NC(=O)C3CCCO3)s2)cc1` (stereo not shown), -27%; as for `CCOc1ccc(C(=O)N2CCN(c3ncccn3)CC2)cc1`, -9.8%. The result for `O=C(COc1cc2oc(=O)c3c(c2cc1Cl)CCC3)Nc1ccc(CN2CCOCC2)cc1` reads 18.5%; that for `O=C(Nc1ncnc2sc3c(c12)CCC3)c1ccco1`, -4.5%; that for `CCOC(=O)C1(CCc2ccccc2)CCN(C(=O)c2cccc(C)n2)CC1`, -11.4%. The result for `Cc1cccc(C)c1N1C(=O)c2ccccc2C1=O` reads -5.63%.

Regarding `O=C(N/N=C/c1ccc(Cl)s1)C(O)c1ccccc1` (stereo not shown), the “hERG current change (%, negative = inhibition) at 10uM” value was found to be 5.02%.

For `COc1ccccc1/C=C/C=N/n1c(COc2ccccc2)n[nH]c1=S`, the “hERG current change (%, negative = inhibition) at 10uM” value turned out to be 15.4%. Turning to `CCOC(=O)Cn1ccc(NC(=O)COc2ccc(F)cc2)n1`, the “hERG current change (%, negative = inhibition) at 10uM” value is on record as -0.732%.

On to `Clc1ccc2nsnc2c1[NH2+]C1=NCCN1.[Cl-]`, for which the “hERG current change (%, negative = inhibition) at 10uM” value turned out to be 12.4%.

`Cc1cc(C(=O)CN2C(=O)c3ccccc3S2(=O)=O)c(C)n1-c1ccccc1`: the “hERG current change (%, negative = inhibition) at 10uM” value is 3.57%. The result for `CN(C)C(=O)N1CCN(S(=O)(=O)c2ccc3ccccc3c2)CC1` reads 1.65%; that for `O=C(OC1Cn2c(=O)ccc(=O)n2C1)c1ccccc1`, 11.3%; that for `CN(C)Cc1c(C(=O)N/N=C/c2ccoc2)nnn1-c1nonc1N`, -26.6%. As for `CCN=C1SC(CC(=O)Nc2ccc3c(c2)OCO3)C(=O)N1CC` (stereo not shown), the figure is -3.33%. As for `COCCNc1nc(N2CCCCC2)c2cnn(C)c2n1`, the figure is 1.81%; as for `COC(=O)c1ccc(OC(=O)c2nn(C)cc2Cl)c(OC)c1`, 15.1%; as for `COC(=O)C1=C(C)NC(=O)C1(NC(=O)CN1CCCC1=O)C(F)(F)F` (stereo not shown), 0.102%.

Turning to `O=C(O)C(=O)O.O=[N+]([O-])c1cc2c(cc1CNCCc1ccc3c(c1)OCO3)OCO2`, the “hERG current change (%, negative = inhibition) at 10uM” value is given as -61.5%. The result for `CCOC(=O)C1(Cc2ccc(O)cc2)NC(c2ccccc2F)C2C(=O)N(C)C(=O)C21` (stereo not shown) reads -2.04%; that for `O=C(CCc1nnc(Cc2ccc(-c3ccccc3)cc2)o1)NCCc1ccccn1`, -31.8%; that for `Cc1[nH]c(=S)[nH]c(=O)c1CCOc1ccccc1`, 14.2%. The result for `Cc1ccc(NC(=S)N(Cc2ccc(Cl)cc2)Cc2ccc(C(=O)O)cc2)cc1Cl` reads 7.34%; that for `Cc1cc2c(N=NC(=O)CCc3ccccc3)c(O)[nH]c2cc1Br`, -0.616%; that for `CCOc1ccc(C(C(=O)NCCOC)N(CCOC)C(=O)CCC(=O)Nc2ccccn2)cc1` (stereo not shown), 4.6%.

As to `O=C(c1cc(-c2cccc(O)c2)on1)N1CCCC1`, the “hERG current change (%, negative = inhibition) at 10uM” value worked out at 8.4%. Regarding `CC(C)C(=O)N1CCN(c2ccc([N+](=O)[O-])c(NC(C)c3ccccc3)c2)CC1` (stereo not shown), the “hERG current change (%, negative = inhibition) at 10uM” value is -11.7%.

For the compound `NC(=O)c1cc2ccccc2o/c1=N/NC(=O)c1cccc(Cl)c1`, the “hERG current change (%, negative = inhibition) at 10uM” value is -22.9%. The result for `CCOCCCNC(=O)CN1CCN(Cc2ccccc2C)C1=O` reads -5.69%. As for `COc1ccc(-n2c(Cc3cc(=O)[nH]c(=O)[nH]3)nnc2SCC(=O)Nc2ccccc2)cc1`, the figure is 1.2%; as for `O=C(CCC(=O)N1CCSc2ccccc21)Nc1cccc(F)c1`, -28.3%. The result for `CCOC(=O)CSc1nc2cc(C(=O)N3CCC(C(N)=O)CC3)ccc2c(=O)n1C1CCCCC1` reads -10.7%; that for `Cc1ccccc1CSc1nnnn1-c1ccc(C(N)=O)cc1`, 14.7%.

For the compound `CSCCC(NS(=O)(=O)c1ccc(Cl)c(Cl)c1)C(=O)O` (stereo not shown), the “hERG current change (%, negative = inhibition) at 10uM” value stood at 12.3%.

As for `CCN(CC)S(=O)(=O)c1ccc(C(=O)OCC(=O)c2ccc3c(c2)NC(=O)CO3)cc1`, the “hERG current change (%, negative = inhibition) at 10uM” value was -12.6%. As for `CC(C)CCNC(=O)CN(C(=O)CCC(=O)Nc1ccccn1)c1ccc2c(c1)OCCO2`, the figure is 0.242%. The result for `COC(=O)c1c(NC(=O)c2ccc(S(=O)(=O)N3CCOCC3)cc2)sc2c1CCN(C(C)C)C2` reads -15.3%; that for `Cc1cnc(NC(=O)C2(c3ccccc3)CC2)s1`, 7.07%; that for `COC(=O)CN(C)C(=O)c1cccc(OC2CCN(S(=O)(=O)N(C)C)CC2)c1`, 13.1%.

On to `CC(C)C(=O)Nc1ncc2c(n1)CC(c1cccs1)CC2=O` (stereo not shown), for which the “hERG current change (%, negative = inhibition) at 10uM” value is reported as -17.3%. As for `CC(OC(=O)c1cc(Br)ccc1O)C(=O)Nc1ccc(S(=O)(=O)N2CCCC2)cc1` (stereo not shown), the figure is 17.9%; as for `O=C(O)c1ccc(N/N=C/c2ccc(-c3ccccc3Cl)o2)cc1`, 22.3%; as for `Cc1ccc(S(=O)(=O)N2CCC(C(=O)OCC(=O)N3CC(C)CC(C)C3)CC2)cc1C` (stereo not shown), 6.97%. The result for `COC(=O)c1cnc(Oc2ccc(NC(=O)NC(=O)c3c(F)cccc3Cl)cc2)cc1C(F)(F)F` reads 10.4%; that for `C/C(=N\NC(=O)c1ccc(NS(=O)(=O)c2cccs2)cc1)c1ccncc1`, 4.24%. For `COC(=O)c1c(-c2ccccc2)csc1NC(=O)C1CC=CCC1C(=O)O` (stereo not shown), the “hERG current change (%, negative = inhibition) at 10uM” value came out at 4.11%. The result for `COc1ccccc1CN1C[C@@H]2C[C@@H](c3cccc(C)c3)N3CCC[C@@]23C1=O` reads -37%; that for `C=CCNC(=O)c1ccc(-c2cccc([N+](=O)[O-])c2)o1`, -9.81%; that for `CCCSc1nc(N)c2c3c(sc2n1)CN(C)CC3`, -37.1%. As for `O=C(N/N=C/c1ccco1)c1ccc(Br)o1`, the figure is 11.5%.
